In paper PMC12820563:
This is one part of the list. The list includes weakly bound sequences.

Target: T1, MBP-FoxP3dN (UniProt Q99JB6)
T1 sequence: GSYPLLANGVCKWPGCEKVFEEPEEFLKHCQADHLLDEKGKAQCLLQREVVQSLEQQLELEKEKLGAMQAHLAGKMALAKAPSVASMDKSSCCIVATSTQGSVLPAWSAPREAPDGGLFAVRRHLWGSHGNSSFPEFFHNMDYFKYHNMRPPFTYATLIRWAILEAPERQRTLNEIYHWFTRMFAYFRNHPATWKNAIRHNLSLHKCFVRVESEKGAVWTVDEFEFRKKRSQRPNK
Assay: PD-seq (MBP pull-down with sequencing)
Details: 20 mM Tris-HCl pH 7.5, 100 mM NaCl, 1.5 mM MgCl2, 0.4 uM protein, 0.1 uM dsDNA library, 30 min, room temperature, amylose pull-down; high values mean tight binding; double strand, one strand shown

Row | Sequence | binding signal (RPM ratio (pull-down/input))
1 | GATGATTGTTCTCCCAGCTGATGAATTTTCCAAATCGAGTAAACAAATTTTCCTAATCTTTCTGTTCAAGCGCCATCTAC | 0.241
2 | GATGATTGTTCTCCCAGCTGATGAATTAGGGGTTTCGAGTAAACAAATTTTCCTAATCTTTCTGTTCAAGCGCCATCTAC | 0.738
3 | GATGATTGTTCTCCCAGCTGATGAATTATGGCATTCGAGTAAACAAATTTTCCTAATCTTTCTGTTCAAGCGCCATCTAC | 5.55
4 | GATGATTGTTCTCCCAGCTGATGAATTGGCATTATCGAGTAAACAAATTTTCCTAATCTTTCTGTTCAAGCGCCATCTAC | 2.51
5 | GATGATTGTTCTCCCAGCTGATGAATTGGTCTAGTCGAGTAAACAAATTTTCCTAATCTTTCTGTTCAAGCGCCATCTAC | 0.279
6 | GATGATTGTTCTCCCAGCTGATGAATTGTGACAATCGAGTAAACAAATTTTCCTAATCTTTCTGTTCAAGCGCCATCTAC | 1.22
7 | GATGATTGTTCTCCCAGCTGATGAATTTGCAACCTCGAGTAAACAAATTTTCCTAATCTTTCTGTTCAAGCGCCATCTAC | 3.64
8 | GATGATTGTTCTCCCAGCTGATGAATTTATGTCATCGAGTAAACAAATTTTCCTAATCTTTCTGTTCAAGCGCCATCTAC | 2.1
9 | GATGATTGTTCTCCCAGCTGATGAATTTTTCCTCTCGAGTAAACAAATTTTCCTAATCTTTCTGTTCAAGCGCCATCTAC | 0.243
10 | GATGATTGTTCTCCCAGCTGATGAATTTGCCCGGTCGAGTAAACAAATTTTCCTAATCTTTCTGTTCAAGCGCCATCTAC | 0.304
11 | GATGATTGTTCTCCCAGCTGATGAATTCATTATATCGAGTAAACAAATTTTCCTAATCTTTCTGTTCAAGCGCCATCTAC | 0.581
12 | GATGATTGTTCTCCCAGCTGATGAATTGCATTGCTCGAGTAAACAAATTTTCCTAATCTTTCTGTTCAAGCGCCATCTAC | 2.55
13 | GATGATTGTTCTCCCAGCTGATGAATTAGTTTCCTCGAGTAAACAAATTTTCCTAATCTTTCTGTTCAAGCGCCATCTAC | 2.99
14 | GATGATTGTTCTCCCAGCTGATGAATTTCATGAATCGAGTAAACAAATTTTCCTAATCTTTCTGTTCAAGCGCCATCTAC | 0.25
15 | GATGATTGTTCTCCCAGCTGATGAATTGGCCCGCTCGAGTAAACAAATTTTCCTAATCTTTCTGTTCAAGCGCCATCTAC | 0.249
16 | GATGATTGTTCTCCCAGCTGATGAATTGTCCAGTTCGAGTAAACAAATTTTCCTAATCTTTCTGTTCAAGCGCCATCTAC | 0.241
17 | GATGATTGTTCTCCCAGCTGATGAATTGCCCAGCTCGAGTAAACAAATTTTCCTAATCTTTCTGTTCAAGCGCCATCTAC | 0.364
18 | GATGATTGTTCTCCCAGCTGATGAATTACGCATCTCGAGTAAACAAATTTTCCTAATCTTTCTGTTCAAGCGCCATCTAC | 7.33
19 | GATGATTGTTCTCCCAGCTGATGAATTTATAAGTTCGAGTAAACAAATTTTCCTAATCTTTCTGTTCAAGCGCCATCTAC | 0.627
20 | GATGATTGTTCTCCCAGCTGATGAATTTGGCCGCTCGAGTAAACAAATTTTCCTAATCTTTCTGTTCAAGCGCCATCTAC | 1.44

Row | Sequence | binding signal (RPM ratio (pull-down/input))
21 | GATGATTGTTCTCCCAGCTGATGAATTTGGTGTTTCGAGTAAACAAATTTTCCTAATCTTTCTGTTCAAGCGCCATCTAC | 3.59
22 | GATGATTGTTCTCCCAGCTGATGAATTCCCTTCGTCGAGTAAACAAATTTTCCTAATCTTTCTGTTCAAGCGCCATCTAC | 0.292
23 | GATGATTGTTCTCCCAGCTGATGAATTCGTCGTATCGAGTAAACAAATTTTCCTAATCTTTCTGTTCAAGCGCCATCTAC | 1.17
24 | GATGATTGTTCTCCCAGCTGATGAATTCAGATCCTCGAGTAAACAAATTTTCCTAATCTTTCTGTTCAAGCGCCATCTAC | 0.332
25 | GATGATTGTTCTCCCAGCTGATGAATTGCCTCCGTCGAGTAAACAAATTTTCCTAATCTTTCTGTTCAAGCGCCATCTAC | 0.847
26 | GATGATTGTTCTCCCAGCTGATGAATTGTCGCAATCGAGTAAACAAATTTTCCTAATCTTTCTGTTCAAGCGCCATCTAC | 2.93
27 | GATGATTGTTCTCCCAGCTGATGAATTTCACATATCGAGTAAACAAATTTTCCTAATCTTTCTGTTCAAGCGCCATCTAC | 0.436
28 | GATGATTGTTCTCCCAGCTGATGAATTAGAAGTATCGAGTAAACAAATTTTCCTAATCTTTCTGTTCAAGCGCCATCTAC | 0.417
29 | GATGATTGTTCTCCCAGCTGATGAATTCTAACCCTCGAGTAAACAAATTTTCCTAATCTTTCTGTTCAAGCGCCATCTAC | 0.278
30 | GATGATTGTTCTCCCAGCTGATGAATTTAGCCGGTCGAGTAAACAAATTTTCCTAATCTTTCTGTTCAAGCGCCATCTAC | 0.47
31 | GATGATTGTTCTCCCAGCTGATGAATTAAGCTTATCGAGTAAACAAATTTTCCTAATCTTTCTGTTCAAGCGCCATCTAC | 1.67
32 | GATGATTGTTCTCCCAGCTGATGAATTGTACGTTTCGAGTAAACAAATTTTCCTAATCTTTCTGTTCAAGCGCCATCTAC | 0.622
33 | GATGATTGTTCTCCCAGCTGATGAATTTTCTGCGTCGAGTAAACAAATTTTCCTAATCTTTCTGTTCAAGCGCCATCTAC | 0.461
34 | GATGATTGTTCTCCCAGCTGATGAATTTGTAAAGTCGAGTAAACAAATTTTCCTAATCTTTCTGTTCAAGCGCCATCTAC | 0.634
35 | GATGATTGTTCTCCCAGCTGATGAATTCCCGGCTTCGAGTAAACAAATTTTCCTAATCTTTCTGTTCAAGCGCCATCTAC | 0.227
36 | GATGATTGTTCTCCCAGCTGATGAATTTCTTATCTCGAGTAAACAAATTTTCCTAATCTTTCTGTTCAAGCGCCATCTAC | 0.495
37 | GATGATTGTTCTCCCAGCTGATGAATTGGCCCCGTCGAGTAAACAAATTTTCCTAATCTTTCTGTTCAAGCGCCATCTAC | 0.23
38 | GATGATTGTTCTCCCAGCTGATGAATTACGAAAGTCGAGTAAACAAATTTTCCTAATCTTTCTGTTCAAGCGCCATCTAC | 0.214
39 | GATGATTGTTCTCCCAGCTGATGAATTGCGTGTTTCGAGTAAACAAATTTTCCTAATCTTTCTGTTCAAGCGCCATCTAC | 2.21
40 | GATGATTGTTCTCCCAGCTGATGAATTGGTGAATTCGAGTAAACAAATTTTCCTAATCTTTCTGTTCAAGCGCCATCTAC | 0.867
